This is one part of the list.
Assays:
Test in all cases: glycan array binding signal (z-score within array); higher = stronger binding
Conditions in all cases: glycan notation: IUPAC condensed, linker removed
[1] = molecular target: Neu5Ac(a2-8)Neu5Ac(a2-6)Glc
How it was run: (§1)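 Glycan array binding is given as a within-array Z-score, which can be read as non-binding when negative. The arrays, 3228 of them, came from the Consortium for Functional Glycomics database and were retained only where the protein sequence was available. Z-scores were averaged across arrays of the same protein sequence at different concentrations or buffers and across linkers.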

[2] = molecular target: Neu5Ac(a2-8)Neu5Ac(a2-8)Neu5Ac
How it was run: as §1

[3] = molecular target: Neu5Ac(a2-8)Neu5Ac(a2-8)Neu5Ac(a2-3)Gal(b1-4)Glc
How it was run: as §1

[4] = molecular target: Neu5Ac(a2-8)Neu5Ac(a2-8)Neu5Ac(a2-6)Gal
How it was run: as §1

[5] = molecular target: Neu5Ac(a2-8)Neu5Ac(a2-8)Neu5Ac(a2-8)Neu5Ac
How it was run: as §1

[6] = molecular target: Neu5Ac(a2-8)Neu5Ac(a2-8)Neu5Ac(a2-8)Neu5Ac(a2-8)Neu5Ac
How it was run: as §1

[7] = molecular target: Neu5Ac(a2-8)Neu5Ac(a2-8)Neu5Ac(a2-8)Neu5Ac(a2-8)Neu5Ac(a2-8)Neu5Ac
How it was run: as §1

[8] = molecular target: Neu5Ac(a2-8)Neu5Ac(a2-8)Neu5Ac(a2-8)Neu5Ac(a2-8)Neu5Ac(a2-8)Neu5Ac(a2-8)Neu5Ac
How it was run: as §1

[9] = molecular target: Neu5Ac(a2-8)Neu5Ac(a2-8)Neu5Ac(a2-8)Neu5Ac(a2-8)Neu5Ac(a2-8)Neu5Ac(a2-8)Neu5Ac(a2-8)Neu5Ac
How it was run: as §1

[10] = molecular target: Neu5Ac(a2-8)Neu5Ac(a2-8)Neu5Ac(a2-8)Neu5Ac(a2-8)Neu5Ac(a2-8)Neu5Ac(a2-8)Neu5Ac(a2-8)Neu5Ac(a2-8)Neu5Ac
How it was run: as §1

[11] = molecular target: Neu5Ac(a2-8)Neu5Ac(a2-8)Neu5Ac(a2-8)Neu5Ac(a2-8)Neu5Ac(a2-8)Neu5Ac(a2-8)Neu5Ac(a2-8)Neu5Ac(a2-8)Neu5Ac(a2-8)Neu5Ac
How it was run: as §1

[12] = molecular target: Neu5Ac(a2-9)Neu5Ac(a2-3)Gal(b1-4)Glc
How it was run: as §1

Neu5Ac(b2-3)Gal(b1-4)Glc = molecular target: Neu5Ac(b2-3)Gal(b1-4)Glc
How it was run: as §1

Neu5Ac(b2-6)Gal(b1-4)Glc = molecular target: Neu5Ac(b2-6)Gal(b1-4)Glc
How it was run: as §1

[13] = molecular target: Neu5Ac9Ac(a2-3)Gal(b1-3)[Fuc(a1-4)]GlcNAc
How it was run: as §1

[14] = molecular target: Neu5Ac9Ac(a2-3)Gal(b1-4)[Fuc(a1-3)]GlcNAc
How it was run: as §1

[15] = molecular target: Neu5Ac9Ac(a2-3)Gal(b1-4)[Fuc(a1-3)]GlcNAc(b1-3)Gal
How it was run: as §1

[16] = molecular target: Neu5Ac9Ac(a2-6)Gal(b1-4)GlcNAc
How it was run: as §1

[17] = molecular target: Neu5Ac9Me(a2-3)Gal(b1-4)Glc
How it was run: as §1

[18] = molecular target: Neu5Gc(a2-3)Gal(b1-3)GlcNAc(b1-3)Gal(b1-4)Glc
How it was run: as §1

Neu5Gc(a2-3)Gal(b1-4)Glc = molecular target: Neu5Gc(a2-3)Gal(b1-4)Glc
How it was run: as §1

[19] = molecular target: Neu5Gc(a2-3)Gal(b1-4)[Fuc(a1-3)]GlcNAc(b1-3)Gal
How it was run: as §1

[20] = molecular target: Neu5Gc(a2-6)Gal(b1-3)GlcNAc(b1-3)Gal(b1-4)Glc
How it was run: as §1

[21] = molecular target: Neu5Gc(a2-6)Gal(b1-4)GlcNAc(b1-2)Man(a1-3)[Neu5Gc(a2-6)Gal(b1-4)GlcNAc(b1-2)Man(a1-6)]Man(b1-4)GlcNAc(b1-4)GlcNAc
How it was run: as §1

Neu5Gc(a2-6)GalNAc = molecular target: Neu5Gc(a2-6)GalNAc
How it was run: as §1

Rha(a1-6)Glc = molecular target: Rha(a1-6)Glc
How it was run: as §1

[22] = molecular target: Xyl(a1-6)Glc(b1-4)[Xyl(a1-6)]Glc(b1-4)[Xyl(a1-6)]Glc(b1-4)Glc
How it was run: as §1

[23] = molecular target: Xyl(b1-2)[Man(a1-3)][Man(a1-6)]Man(b1-4)GlcNAc(b1-4)GlcNAc
How it was run: as §1

[24] = molecular target: Xyl(b1-2)[Man(a1-3)][Man(a1-6)]Man(b1-4)GlcNAc(b1-4)[Fuc(a1-3)]GlcNAc
How it was run: as §1

[25] = molecular target: Xyl(b1-4)Xyl(b1-4)Xyl(b1-4)Xyl(b1-4)Xyl
How it was run: as §1

[26] = molecular target: Xyl(b1-4)Xyl(b1-4)Xyl(b1-4)Xyl(b1-4)Xyl(b1-4)Xyl
How it was run: as §1

Measured: glycan array binding signal (z-score)

B1: HysACBM (Streptococcus pneumoniae), Q54873 (protein)
chain: KNLVENGDFGQTEDGSSPWTGSKAQGWSAWVDQKNSADASTRVIEAKDGAITISSHEKLRAALHRMVPIEAKKKYKLRFKIKTDNKIGIAKVRIIEESGKDKRLWNSATTSGTKDWQTIEADYSPTLDVDKIKLELFYETGTGTVSFKDIELVEVADQLS
0.22: [1]
0.01: [22]
-0.087: Neu5Ac(b2-6)Gal(b1-4)Glc
-0.091: [2] | [3] | [4] | [5] | [6] | [7] | [8] | [9] | [10] | [11] | [12] | Neu5Ac(b2-3)Gal(b1-4)Glc | [13] | [14] | [15] | [16] | [17] | [18] | Neu5Gc(a2-3)Gal(b1-4)Glc | [19] | [20] | [21] | Neu5Gc(a2-6)GalNAc | Rha(a1-6)Glc | [23] | [24] | [25] | [26]
